In a collection of fitness landscapes (doi:10.1016/j.celrep.2020.107928):
Over roughly 81,000 sequences, “one-hybrid fitness for binding NBS DNA” has its median near -0.1; the highest 2% begin near 0.36. The list shows a part of the results.

B1: Caulobacter ParB omega fusion; a variant is named by its letters at X, in order, B8GW30 (parent)
chain: MESVVVGEPGMSEGRRGLGRGLSALLGEVDAAPAQAPGEQLGGSREAPIEILQRNPDQPRRTFREEDLEDLSNSIREKGVLQPILVRPSPDTAGEYQIVAGERAWRAAQRAGLKTVPIMVRELDDLAVLEIGIIENVQRADLNVLEEALSYKVLMEKFERTQENIAQTIGKSXSHVANXMRLLXLPDEVQSYLVSGELTAXHARAIAAAADPVALAKQIIEGGLSVRETEALARKAPNLSAGKSKGGRPPRVKDTDTQALESDLSSVLGLDVSIDHRGSTGTLTITYATLEQLDDLCNRLTRGI

Variants of: B1
Experiment: one-hybrid fitness for binding NBS DNA (the Noc-binding site; scaled: cognate 1, non-cognate 0); higher = stronger binding
Details: with NBS DNA site
In short: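 Fitness here means the log change in variant-to-wild-type read ratio between plasmids sequenced before and after selection. That scale was set so cognate equals 1 and non-cognate equals 0. The selection was a bacterial one-hybrid screen of Caulobacter ParB libraries, four specificity codons randomised, in E. coli USO carrying a HIS3 reporter with the site 19 bp from the promoter, grown 48 hours at 37°C on M9-minus-histidine with 0.1 mM IPTG and 5 mM 3-AT.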

| Variant | one-hybrid fitness for binding NBS DNA |
| --- | --- |
| KGRD | ≤ 0.2 |
| NLQS | ≤ 0.2 |
| VCVS | ≤ 0.2 |
| RNAY | ≤ 0.2 |
| PALW | ≤ 0.2 |
| RSNK | ≤ 0.2 |
| MRKA | ≤ 0.2 |
| GTRY | ≤ 0.2 |
| GLSH | ≤ 0.2 |
| APCD | ≤ 0.2 |
| VVVS | ≤ 0.2 |
| YIHS | ≤ 0.2 |
| QMWC | ≤ 0.2 |
| CQHK | ≤ 0.2 |
| TYCV | ≤ 0.2 |
| PNGP | ≤ 0.2 |
| RLSW | ≤ 0.2 |
| GMDL | ≤ 0.2 |
| NFLS | ≤ 0.2 |
| RWCG | ≤ 0.2 |
| GHTY | ≤ 0.2 |
| ISTA | ≤ 0.2 |
| QNKS | 0.355 |
| APIR | ≤ 0.2 |
| WASA | ≤ 0.2 |
| SCHT | ≤ 0.2 |

| Variant | one-hybrid fitness for binding NBS DNA |
| --- | --- |
| QPGY | ≤ 0.2 |
| PLIT | ≤ 0.2 |
| KILF | ≤ 0.2 |
| SVRR | ≤ 0.2 |
| VHQY | ≤ 0.2 |
| SYNY | ≤ 0.2 |
| YHYS | ≤ 0.2 |
| QCER | 0.438 |
| PIGD | ≤ 0.2 |
| GTRC | ≤ 0.2 |
| VMRC | ≤ 0.2 |
| EPFT | ≤ 0.2 |
| WAIR | ≤ 0.2 |
| QVEP | ≤ 0.2 |
| CQKV | ≤ 0.2 |
| MVYD | ≤ 0.2 |
| TGAI | ≤ 0.2 |
| CLSA | ≤ 0.2 |
| IHMV | ≤ 0.2 |
| QGNT | ≤ 0.2 |
| RRAN | 0.282 |
| YETF | ≤ 0.2 |
| IIIS | ≤ 0.2 |
| QGRC | ≤ 0.2 |
| YNAT | ≤ 0.2 |
| VQFE | ≤ 0.2 |

| Variant | one-hybrid fitness for binding NBS DNA |
| --- | --- |
| AANQ | ≤ 0.2 |
| SLAV | ≤ 0.2 |
| LRDY | ≤ 0.2 |
| YVNS | ≤ 0.2 |
| WNYR | ≤ 0.2 |
| NAEW | ≤ 0.2 |
| DLFL | ≤ 0.2 |
| VTNA | ≤ 0.2 |
| SYSF | ≤ 0.2 |
| PGQM | ≤ 0.2 |
| CWTC | ≤ 0.2 |
| PAQD | ≤ 0.2 |
| SFNC | ≤ 0.2 |
| QGSV | ≤ 0.2 |
| QRVR | 0.839 |
| QDVR | ≤ 0.2 |
| NASQ | ≤ 0.2 |
| GMKL | ≤ 0.2 |
| SVCC | ≤ 0.2 |
| HKTA | ≤ 0.2 |
| MMGT | ≤ 0.2 |
| HVLF | ≤ 0.2 |
| QNRP | ≤ 0.2 |
| PPHG | ≤ 0.2 |
| PGKV | ≤ 0.2 |
| TYQD | ≤ 0.2 |

| Variant | one-hybrid fitness for binding NBS DNA |
| --- | --- |
| MLTR | ≤ 0.2 |
| SSDN | ≤ 0.2 |
| LAPY | ≤ 0.2 |
| PVRR | ≤ 0.2 |
| FCVS | ≤ 0.2 |
| RMPL | ≤ 0.2 |
| DCSS | ≤ 0.2 |
| MPRG | ≤ 0.2 |
| VIPS | ≤ 0.2 |
| LYID | ≤ 0.2 |
| WQVT | ≤ 0.2 |
| ETRW | ≤ 0.2 |
| QATQ | ≤ 0.2 |
| MRAP | ≤ 0.2 |
| PCIV | ≤ 0.2 |
| WPSA | ≤ 0.2 |
| YHCT | ≤ 0.2 |
| RFGQ | ≤ 0.2 |
| HEHD | ≤ 0.2 |
| GCHR | ≤ 0.2 |
| WSKT | ≤ 0.2 |
| TKCV | ≤ 0.2 |
| VLCY | ≤ 0.2 |
| VELL | ≤ 0.2 |
| EQGH | ≤ 0.2 |
| PTSA | ≤ 0.2 |

| Variant | one-hybrid fitness for binding NBS DNA |
| --- | --- |
| MNSN | ≤ 0.2 |
| MPTA | ≤ 0.2 |
| VSAV | ≤ 0.2 |
| TGMI | ≤ 0.2 |
| TKLY | ≤ 0.2 |
| WCHC | ≤ 0.2 |
| ITKY | ≤ 0.2 |
| CFAT | ≤ 0.2 |
| ASTA | ≤ 0.2 |
| IRVS | ≤ 0.2 |
| PTRM | ≤ 0.2 |
| REWG | ≤ 0.2 |
| NLPR | ≤ 0.2 |
| CTNP | ≤ 0.2 |
| TGSE | ≤ 0.2 |
| EGET | ≤ 0.2 |
| ATMW | ≤ 0.2 |
| SECC | ≤ 0.2 |
| IKLC | ≤ 0.2 |
| WMLN | ≤ 0.2 |
| QHSV | ≤ 0.2 |
| RQEK | ≤ 0.2 |
| DAVM | ≤ 0.2 |
| CAMR | ≤ 0.2 |
| PAKE | ≤ 0.2 |
| CQVR | ≤ 0.2 |

| Variant | one-hybrid fitness for binding NBS DNA |
| --- | --- |
| TKNI | ≤ 0.2 |
| PHMI | ≤ 0.2 |
| ETTG | ≤ 0.2 |
| ACAK | ≤ 0.2 |
| QNWI | ≤ 0.2 |
| RVRY | 0.267 |
| MVVS | ≤ 0.2 |
| GVLT | ≤ 0.2 |
| SMGC | ≤ 0.2 |
| GIWV | ≤ 0.2 |
| HTPN | ≤ 0.2 |
| FCHL | ≤ 0.2 |
| RSMV | ≤ 0.2 |
| KIRM | ≤ 0.2 |
| NPLI | ≤ 0.2 |
| AHIF | ≤ 0.2 |
| KNAG | ≤ 0.2 |
| RFWC | ≤ 0.2 |
| TEDV | ≤ 0.2 |
| TWYS | ≤ 0.2 |
| QTKL | 0.395 |
| TAFW | ≤ 0.2 |
| YRCT | ≤ 0.2 |
